Assay results from the supplement of paper PMC10126150.
Sequences with one replicate were seen in a single cluster, so their values are uncertain.

System: ATP
Assay: switch fluorescence ratio, 500 uM ATP over buffer (Cy3 cluster intensity, sum of 5 cycles each) (fold (ratio)); higher = stronger signal-on switching upon ATP binding; sequences stand for … in TCGTCGGCAGCGTCAGATGTGTATAAGAGACAGTTTTTTTTTTTTTTTTTTTTTTTTT…TC
Conditions: aptamer strand: ATP DNA aptamer (quencher-CACCTGGGGGAGTATTGCGGAGGAAGG + anchor), 100 nM annealed; ATP concentration: 500 uM; one replicate
In short: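 For every switch-domain sequence, the fluorescence ratio is the mean of per-cluster values, each being summed target-cycle Cy3 intensity over summed buffer-cycle Cy3 intensity. Clusters outside 100-1000 RFU were excluded. On a modified Illumina MiSeq flow-cell, the Cy3-labelled switching-strand clusters were annealed to 100 nM quencher-labelled ATP aptamer, imaged in selection buffer and then after 15 min with 500 uM ATP at 22 °C. Five such cycles were run, with NaOH stripping and re-annealing between them.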
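Note: ATP exposure 15 min at 22 °C before imaging.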

| Sequence | switch fluorescence ratio |
| --- | --- |
| GAGTTTAGG | 0.943 |
| TGTCGAGGTA | 1.06 |
| TATAGTGTCA | 1 |
| CAGTTTGGTA | 1.03 |
| GACGTTCGTA | 0.981 |
| GAACTGTTAG | 0.998 |
| AGTGTAACTT | 1.03 |
| TAGTTGCTGT | 0.989 |
| TTATGGGTAT | 0.96 |
| AGGTTTGGTA | 1.01 |
| AGCTTACTAA | 0.996 |
| GTGGGAACTT | 0.985 |
| GTCGGTCTGT | 0.949 |
| ACAGTATCCG | 0.981 |
| GTCGTGTGTG | 0.988 |
| GGCTCCTATA | 1.04 |
| AGTTTCGGTT | 1.01 |
| TGAATTTCTC | 1.06 |
| TTCTGTCTGA | 1.01 |
| ATGCGGCGGC | 1.01 |
| TTGCGGGTGT | 1.01 |
| TGCTAGCAAC | 0.998 |
| CTGGCTTCTG | 1.06 |

| Sequence | switch fluorescence ratio |
| --- | --- |
| TGGCAGCTGG | 1 |
| TACTGAACTT | 1.13 |
| TAAATGGATG | 0.966 |
| ATTAGACGAA | 1.01 |
| GTTATAGAAT | 0.984 |
| TAGTCATTGC | 1.03 |
| CTGTAGTTTA | 1.04 |
| AGTATATAAC | 0.984 |
| ACGTATCCG | 1.05 |
| TGCGACAGAC | 1.09 |
| AGTATCTAA | 0.971 |
| CTGGGCCCCC | 1.03 |
| AGAATATTTC | 0.991 |
| CATCTCCAGC | 1.13 |
| ACCGCTGAGT | 1.11 |
| CTGAAGGCTT | 0.966 |
| CTCGTGTACG | 0.879 |
| GTCCCGGCGA | 1.14 |
| AGAAGTGT | 1 |
| TACGAGTTAG | 1.01 |
| GTAAAATTCG | 0.976 |
| CCGATTTGCC | 1.22 |
| TCAGGGACAT | 0.993 |

| Sequence | switch fluorescence ratio |
| --- | --- |
| CCTATTGCCA | 1.09 |
| GCTGGCACGC | 1.03 |
| TACGTCCATC | 1.03 |
| CACCTC | 1.1 |
| GTATAGTGCT | 0.958 |
| CAGCTTGGAA | 1 |
| TTTGATTATG | 1.02 |
| CTTTGACGAC | 1.13 |
| TGGGTCTGTA | 1.01 |
| CTCTCACGCC | 1.35 |
| GGGGAGCAAA | 1 |
| TTGTGAGTC | 0.974 |
| GAGCTTGTTC | 0.948 |
| GCCAGGCTCG | 1.01 |
| TACTCCTTGT | 1.07 |
| CGGCAGATCC | 1.09 |
| ATATCCGTGT | 0.988 |
| GTCGACCTTT | 0.986 |
| TAAGACTAAA | 0.985 |
| GAATTAGGT | 1.02 |
| AGGATTCCCG | 1.02 |
| GTGTTTCTGT | 0.972 |
| GCCTTTATTG | 0.961 |

| Sequence | switch fluorescence ratio |
| --- | --- |
| GTCGTATATA | 1 |
| TCAGGAGTTG | 0.997 |
| ACAACCCCGG | 1.35 |
| CTTGGGTGGG | 0.966 |
| CAGTTTTCAT | 0.964 |
| ACGTCACGCT | 1.39 |
| GGTTGGCTTC | 1.01 |
| ATGACCTGCT | 1.04 |
| CGCGTGACG | 0.955 |
| CTTTGGTGAG | 1.03 |
| ATGATTCCTG | 0.911 |
| AGAATGGCGG | 0.977 |
| GTAGGGCTTT | 0.981 |
| TAACCGCCGA | 1.13 |
| CAACTGGACG | 0.991 |
| AGGGGTCGAT | 1.01 |
| ACTTTTCTG | 1.02 |
| TGCTCGACGT | 0.98 |
| GATATCATAG | 0.993 |
| ACATGTGGTT | 1.01 |
| ACATGGTCAC | 0.999 |
| TATGGTCGGT | 1.01 |
| TGGTGGTACT | 1.05 |

| Sequence | switch fluorescence ratio |
| --- | --- |
| CCGGCCCGCA | 3.95 |
| CTAGAGCGTT | 1.03 |
| GTGACGCTAT | 2.36 |
| TTTGTAGGTC | 1.01 |
| CATGTGGC | 0.962 |
| CCCTATCCG | 1.03 |
| GCACTCTGAT | 1.05 |
| GGTACATTGG | 0.98 |
| CGGGGGTGT | 1.05 |
| GCCGTTGTTA | 0.989 |
| TGGGGAGAT | 1 |
| ACGATAATG | 1.13 |
| GACTTTCCGA | 1.75 |
| TGGCCCTCAG | 0.996 |
| TCGGCACCC | 1.02 |
| ATGATAAATA | 1.02 |
| GGCTTTAGAG | 0.989 |
| GAGCAGTCTT | 0.989 |
| AATGTACCGT | 1.08 |
| GGCTGGTCTT | 1.01 |
| TGTTCATCCG | 1.33 |
| TTCGGGGCTA | 1.02 |
| GGCTGGTGTC | 1.06 |

| Sequence | switch fluorescence ratio |
| --- | --- |
| CAGGTTGCCA | 1.02 |
| GACCGGCTTT | 1.03 |
| AGAAGAACAG | 1.04 |
| CCTGCATCCC | 2.82 |
| AACAAGTCCT | 1.04 |
| CAACGCCGGG | 0.976 |
| ACGAGTGAGG | 1.03 |
| AACTAAGAAT | 0.998 |
| GGATTTTGAA | 0.948 |
| TCCAACCTTA | 0.967 |
| AGAAACATAT | 1 |
| CAAATCTTCT | 1.13 |
| GATGGAAGGA | 1.03 |
| ACCTCTCGCC | 1.7 |
| AAGGGGCTCC | 0.957 |
| ATATACAAAC | 1.14 |
| GTTGTCCGTC | 1.02 |
| CATGTTCCTC | 1.05 |
| CGACTAGGGC | 1.04 |
| AAGTACCTTA | 1.19 |
| TGCCAGGCAC | 1.01 |
| TACTAGTCGT | 1.02 |
| CCATGCTGCT | 1.03 |

| Sequence | switch fluorescence ratio |
| --- | --- |
| GTAATTTTGT | 1.02 |
| TTCTTCGTTT | 0.969 |
| GAATAGCATG | 1.01 |
| CGCTGGTATT | 1.02 |
| CGCGACCGTA | 1.04 |
| GGGGGCATCC | 1.1 |
| AAAGCATAGC | 1.06 |
| TTTTTCGGTC | 0.959 |
| AGTACTACAT | 1.07 |
| CCTCACTTAT | 1.34 |
| TTGGGTATCC | 0.928 |
| GGTCTGGTTC | 1.04 |
| TATCTGTAGC | 1.03 |
| TTCGATTAGC | 1.05 |
| AGCTATTTTC | 1.02 |
| CATTCATGCG | 0.999 |
| AAACACGAGA | 1.05 |
| GTCTTGTACC | 0.986 |
| CGGACGATGG | 0.976 |
